# Experimental data: the supplement of paper PMC12645437, “Orthogonal IMiD-Degron Pairs Induce Selective Protein Degradation in Cells” (ACS Chemical Biology, 2025)
# The other results are listed elsewhere or left out.
# Target: no compound (DMSO)
# Test: log2 fold change of degron read counts, EGFP-low vs EGFP+ sorted cells; higher = lower degron-EGFP level without compound (poor expression or instability)
# Conditions: compound: DMSO control; 18 h
# 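Note: jurkat cells carrying a lentiviral library of mutant zinc finger degrons fused to EGFP plus mCherry, mCherry+ cells FACS sorted, degron abundance counted by next-generation sequencing.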
row,Sequence,log2 fold change of degron read counts
1,FICNVCGAFFTQKGNLLRHIKL,-0.34
2,FCCDVCGAPFTQKGNLLRHIKL,-0.916
3,FKCEVCGADFTQKGNLLRHIKL,-1.98
4,FHCEVCGAKFTQKGNLLRHIKL,-1.67
5,FRCNQCGAFFTQKGNLLRHIKL,0.343
6,LECNQCGFNCTQKGNLLRHIKL,0.286
7,LLCEICGFVCTQKGNLLRHIKL,0.366
8,FKCPICGREFTQKGNLLRHIKL,-0.554
9,FTCDVCGASFTQKGNLLRHIKL,-1.73
10,FTCEICGAPFTQKGNLLRHIKL,-0.923
11,FACPICGRHFTQKGNLLRHIKL,-0.855
12,FDCSVCGHWFTQKGNLLRHIKL,1.59
13,FECNQCGRFFTQKGNLLRHIKL,-0.652
14,FFCEICGRYFTQKGNLLRHIKL,0.222
15,FRCEVCGAAFTQKGNLLRHIKL,-1.4
16,FTCDICGAWFTQKGNLLRHIKL,-1.39

row,Sequence,log2 fold change of degron read counts
1,FVCPICGRVFTQKGNLLRHIKL,0.106
2,FICPICGRCFTQKGNLLRHIKL,0.0287
3,FTCDVCGATFTQKGNLLRHIKL,-1.65
4,LCCNQCGFKCTQKGNLLRHIKL,0.475
5,FQCEVCGAWFTQKGNLLRHIKL,-0.975
6,FICNQCGAVFTQKGNLLRHIKL,-0.326
7,FRCEICGRHFTQKGNLLRHIKL,-0.955
8,FCCEVCGAMFTQKGNLLRHIKL,-1.15
9,FWCPQCGAFFTQKGNLLRHIKL,1.73
10,FMCNQCGAQFTQKGNLLRHIKL,-1.56
11,FCCEQCGAKFTQKGNLLRHIKL,-1.17
12,FLCNVCGAYFTQKGNLLRHIKL,-0.283
13,FECDVCGASFTQKGNLLRHIKL,-2.12
14,FVCEICGARFTQKGNLLRHIKL,-0.842
15,LHCNQCGFKCTQKGNLLRHIKL,0.391
16,FNCDVCGANFTQKGNLLRHIKL,-2.42
